Article PMC4336329 (PLoS ONE, 2015)
Among all 310,000 compounds or so, about 2,200 (0.71%) showed an effect of 50% or more. Effects have a minus sign here. The list shows a part of the results.

The compounds below were run against human ether-à-go-go-related gene (hERG) potassium channel (human, UniProt Q12809) (assay: primary screen, population patch clamp on CHO cells stably expressing hERG).
Chain of human ether-à-go-go-related gene (hERG) potassium channel (Q12809 whole entry, looked up): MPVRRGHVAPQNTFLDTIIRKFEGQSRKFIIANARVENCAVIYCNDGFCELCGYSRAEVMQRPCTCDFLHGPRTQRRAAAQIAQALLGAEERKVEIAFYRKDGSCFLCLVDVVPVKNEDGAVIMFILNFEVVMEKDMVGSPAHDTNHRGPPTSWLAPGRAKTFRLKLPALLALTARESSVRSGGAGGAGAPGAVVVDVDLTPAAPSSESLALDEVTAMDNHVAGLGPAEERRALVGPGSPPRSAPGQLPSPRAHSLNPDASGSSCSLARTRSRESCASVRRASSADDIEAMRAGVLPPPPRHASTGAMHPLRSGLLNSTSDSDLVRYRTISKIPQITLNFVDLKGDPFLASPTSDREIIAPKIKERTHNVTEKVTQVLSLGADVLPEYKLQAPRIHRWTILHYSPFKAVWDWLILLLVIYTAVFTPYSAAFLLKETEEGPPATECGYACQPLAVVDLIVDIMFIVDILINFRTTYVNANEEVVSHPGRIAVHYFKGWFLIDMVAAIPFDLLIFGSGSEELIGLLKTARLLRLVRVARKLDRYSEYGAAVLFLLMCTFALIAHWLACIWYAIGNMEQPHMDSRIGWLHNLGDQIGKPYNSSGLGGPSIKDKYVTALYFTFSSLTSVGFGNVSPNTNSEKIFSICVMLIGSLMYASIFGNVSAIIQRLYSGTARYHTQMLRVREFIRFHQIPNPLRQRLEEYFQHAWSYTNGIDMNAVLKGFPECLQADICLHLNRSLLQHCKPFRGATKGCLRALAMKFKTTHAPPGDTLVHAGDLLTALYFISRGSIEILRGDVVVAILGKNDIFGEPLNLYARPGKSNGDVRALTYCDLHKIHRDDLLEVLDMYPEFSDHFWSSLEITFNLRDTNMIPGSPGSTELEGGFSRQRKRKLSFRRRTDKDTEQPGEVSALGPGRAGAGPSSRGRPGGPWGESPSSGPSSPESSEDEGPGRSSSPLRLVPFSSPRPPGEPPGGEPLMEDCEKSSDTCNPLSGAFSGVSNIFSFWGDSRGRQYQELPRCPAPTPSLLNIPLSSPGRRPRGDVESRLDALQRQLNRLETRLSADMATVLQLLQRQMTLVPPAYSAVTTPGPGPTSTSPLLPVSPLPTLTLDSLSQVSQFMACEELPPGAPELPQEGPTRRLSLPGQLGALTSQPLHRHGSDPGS

Row | SMILES | hERG current change (%, negative = inhibition) at 1uM
1 | Cc1nn(CC(=O)NN)c(C)c1Br | 11.2%
2 | O=C(O)c1cccc2nc3ccccc3nc12 | -7.04%
3 | COc1cc(C=Nc2c(C)cc(C)cc2C)ccc1OC(C)=O | 6.94%
4 | Cc1ccc(C(=O)N/N=C\c2ccc3c(c2)OCO3)cn1 | 0.204%
5 | Cc1cccn2c(=O)c3cc(C(=O)NCC(C)C)sc3nc12 | 1.09%
6 | CCOc1ccc(C(C)=O)cc1Cc1c(O)nc(N)[nH]c1=O | 11.6%
7 | Cc1ccc(C(=O)n2cc(CCN3CCS(=O)(=O)CC3)c3ccccc32)cc1 | 10.3%
8 | Cc1ccc(OCCCCNC(C)(C)C)c([N+](=O)[O-])c1.O=C(O)C(=O)O | 4.98%
9 | O=C1C2C3c4ccccc4C(c4ccccc43)[C@@H]2C(=O)N1c1cccnc1 (stereo partly drawn) | 11.8%
10 | O=c1c2ccccc2nc(/C=C/c2cccc(Br)c2)n1CCCO | 10.2%
11 | COc1ccccc1-c1noc(CCCC(=O)N2CCOCC2)n1 | 5.6%
12 | CCCNS(=O)(=O)c1ccc(OCC(=O)N2CCN(C)CC2)cc1 | 0.693%
13 | Cn1cnnc1SCC(=O)Nc1cc(S(=O)(=O)N2CCCCCC2)ccc1Cl | 7.67%
14 | COc1ccc(NC(C)C(=O)N2CCN(Cc3ccccc3)CC2)cc1 (stereo not drawn) | 20.3%
15 | Cc1cccn2c(=O)c3cc(C(=O)NC4CCCC4)sc3nc12 | 2.15%
16 | Cc1ccc(C(=O)NC(C)C2CCCO2)o1 (stereo not drawn) | 8.01%
17 | COc1ccc(S(=O)(=O)N(C)CC(=O)Nc2ccc(C(N)=O)cc2)cc1OC | 10.9%
18 | Cc1ccc(-n2c(=O)c3ccc(C(=O)NCc4ccco4)cc3n(Cc3ccccc3C#N)c2=O)cc1 | 21.3%
19 | COc1ccc(OC)c(/C=C2\SC(=S)N(C(C(=O)O)c3ccccc3)C2=O)c1 (stereo not drawn) | 10.5%
20 | COC(=O)c1cc(Br)c(=O)n(-c2ccccc2OC)c1 | 11.9%
21 | O=C(NCCCCc1ccccc1)C12CN(Cc3ccccc3)CC1C(c1cccc([N+](=O)[O-])c1)=NO2 (stereo not drawn) | 10.9%
22 | C=CCn1c2ccccc2c2nnc(SCC(=O)OCN3C(=O)c4ccccc4C3=O)nc21 | -3.37%
23 | O=C(c1cc(Cl)c(=O)n(Cc2ccc(Cl)cc2)c1)N1CCOCC1 | -6.51%

Row | SMILES | hERG current change (%, negative = inhibition) at 1uM
24 | CCCNC(=O)c1ccc(N2CCC3(CC2)CC(c2ccccc2)=NO3)c(NC(=O)c2cccc(OC)c2)c1 | -2.22%
25 | CCOC(=O)c1sc(=NC(=O)c2ccc(C)cc2)n(C)c1C | 8.94%
26 | Cc1cc(Cl)c2oc(C(=O)N(C)Cc3ccon3)c(C)c2c1 | 13.6%
27 | COCCn1c(SCC(=O)Nc2nc(C)cs2)nnc1C(C)C | 9.94%
28 | COc1ccc(C(=O)CCc2ccccc2)c(O)c1 | 18.6%
29 | COC(=O)c1ccc2c(c1)NC(=O)c1ccccc1S2 | 15.9%
30 | O=C(O)c1cc(NC(=O)c2ccco2)cc(NC(=O)c2ccco2)c1 | 10.8%
31 | COc1n[nH]c(C(=O)Nc2cc(Cl)ccc2Cl)c1[N+](=O)[O-] | 11.6%
32 | C(=NC12CN3CN(CN(C3)C1)C2)c1cccnc1 | 12.7%
33 | Cc1cccc(N2CC34C=CC(O3)C(C(=O)O)C4C2=O)c1 (stereo not drawn) | 6.38%
34 | O=C(Nc1cccnc1Cl)c1ccc(S(=O)(=O)N2CCCCCC2)cc1 | 2.57%
35 | COc1ccc(N2CC(C(=O)Nc3cc(C)on3)CC2=O)cc1 (stereo not drawn) | 12.3%
36 | O=C(CN1C(=O)c2cccnc2Oc2ccc(Cl)cc21)NCCC1=CCCCC1 | 4.44%
37 | COc1ccc(NC(=O)c2ccc(C(=O)Nc3ccc(OC)cc3OC)cc2)c(OC)c1 | 5.18%
38 | CC(C)CCNc1nc(N)c([N+](=O)[O-])c(NCC2CCCO2)n1 (stereo not drawn) | 0.142%
39 | Cc1ccc(S(=O)(=O)N2CCOC2CNC(=O)C(=O)NCCc2ccccc2)cc1 (stereo not drawn) | 4.95%
40 | COc1ccccc1OCCC(=O)OCC(=O)NCc1ccc(Cl)cc1 | -3.18%
41 | COC(=O)Nc1nnc(/C=C/c2ccccc2)s1 | 10.5%
42 | O=C(NCc1cccc2ccccc12)c1cccs1 | 16.4%
43 | O=C(CN1CCN(Cc2ccc(F)cc2)CC1)Nc1ccccc1F | -12%
44 | CCC(=O)NCc1c(Cl)cccc1-n1cccc1 | 6.64%
45 | S=c1[nH]nc(-c2ccco2)n1/N=C/c1ccc(Cl)c(Cl)c1 | 8.2%
46 | COc1ccc2oc(C(=O)OCC(=O)N(CC(C)C)c3c(N)n(Cc4ccccc4)c(=O)[nH]c3=O)c(C)c2c1 | 7.49%

Row | SMILES | hERG current change (%, negative = inhibition) at 1uM
47 | COc1ccc2oc(-c3ccccc3)c(C(N)=O)c2c1 | 13.2%
48 | COc1cc(OC)c(C(=O)NC2CCCCCC2)cc1OC | 4.33%
49 | CCOC(=O)c1c(C)[nH]c(C(=O)COC(=O)c2ccc(O)cc2)c1C | 14.3%
50 | COCCN(C(=O)c1cccc(N2C(=O)CCC2=O)c1)c1nc(-c2ccc([N+](=O)[O-])cc2)cs1 | -19.2%
51 | Cc1cc(OCC(=O)Nc2ccncc2)ccc1Br | 15%
52 | Cc1cc(C)cc(NC(=O)N2CCCN(Cc3c(F)cccc3Cl)CC2)c1 | 5.85%
53 | COc1cccc(/C=C/C(=O)OCC(=O)NCCc2ccccc2)c1 | 4.44%
54 | Cc1cnc(NC(=O)CCCNC(=O)c2ccc(Cl)cc2)s1 | 15.1%
55 | COC(=O)c1ccc2[nH]c(C)cc(=O)c2c1 | 9.04%
56 | Cc1ccc(NC2(C#N)C(=O)Nc3ccccc32)cc1C (stereo not drawn) | 7.55%
57 | O=C(COC(=O)c1ccccc1C(=O)c1ccc(Cl)cc1)NCC1CCCO1 (stereo not drawn) | 14.6%
58 | CCN(CC)C(=O)CSc1nc2ccccc2c(=O)n1OC | -3.33%
59 | CCOC(=O)[C@H]1[C@H]2COc3cc(OC)ccc3[C@@H]2N2C(=O)c3cc(C)ccc3NC(=O)[C@@]12C | 13.6%
60 | Cl.Nc1ncnc2c1CCC2 | 9.16%
61 | O=C(Cn1cccc1C(=O)c1ccccc1)NCc1ccc2c(c1)OCO2 | 4.28%
62 | CCOC(=O)Cc1nnc(NC(=O)CSc2nc3ccccc3[nH]2)s1 | 13.8%
63 | Cc1ccc(S(=O)(=O)N2CCCC2C(=O)OCc2ccco2)cc1 (stereo not drawn) | -1.18%
64 | COc1cc(OC)cc(C(=O)Nc2nc(-c3ccccc3)c(-c3ccccc3)o2)c1 | 1.07%
65 | O=C(CC(c1ccccc1)c1cc(Br)ccc1O)NCc1ccco1 (stereo not drawn) | -5.62%
66 | CN1C(CC(=O)Nc2ccc(Br)cc2)c2ccccc2CC1(C)C (stereo not drawn) | 21.3%
67 | CC(=O)c1sc(NC(=O)c2cnc(Cl)c(Cl)c2)nc1C | 13.7%
68 | Cc1ccc(C(OCCN(C)C)c2cccc(C(F)(F)F)c2)cc1.O=C(O)/C=C\C(=O)O (stereo not drawn) | -6.41%
69 | Cc1ccccc1OCC(=O)OC(C)C(=O)NC1CCCC1 (stereo not drawn) | 12.3%

Row | SMILES | hERG current change (%, negative = inhibition) at 1uM
70 | CCOc1ccc2c(c1)C(c1ccc(C)cc1)=NNC(c1ccc(C)cc1)=N2 | 4.76%
71 | O=C(Nc1ccccc1C(F)(F)F)N1CCCC1c1cccnc1 (stereo not drawn) | 13.1%
72 | O=C(Nc1nccs1)c1cc(-c2ccco2)nc2ccccc12 | 8.17%
73 | C/C(=N/NC(=O)c1cccc(N2CCCC2=O)c1)c1ccc(Br)cc1 | 4.79%
74 | CCCCn1nc(C(=O)NCc2ccccc2CN2CCCC2)c2ccccc2c1=O | -16.9%
75 | Cc1ccc(C(=O)N/C(=C/c2ccccc2)C(=O)NCc2ccncc2)cc1 | -37.7%
76 | COc1cccc(/C=N/N2CCOCC2)c1O | 4.89%
77 | CCOC(=O)c1c(CN2CCOCC2)n(-c2ccccc2)c2ccc(O)cc12 | -2.45%
78 | CC(C)[C@H](NC(=O)Nc1ccccc1F)C(=O)O | 14.7%
79 | COc1cc(/C=N/Nc2ccc(S(N)(=O)=O)cc2[N+](=O)[O-])cc(OC)c1O | 8.03%
80 | C=CCSc1nc2ccccc2c(=O)n1Cc1ccccc1 | -0.438%
81 | CSc1nc2ccc(NC(=O)CSc3nnc(N)s3)cc2s1 | 4.94%
82 | CN(C)CCCN(C(=O)COc1ccccc1)c1nc2ccc(F)cc2s1.Cl | -20.6%
83 | Cc1cccc(-n2c(CNC(=O)Cc3ccccc3)n[nH]c2=S)c1 | 9.93%
84 | COc1ccc(OC)c(NC2c3ncccc3C(=O)N2Cc2ccco2)c1 (stereo not drawn) | 1.72%
85 | COc1cccc(CN(C)CC(=O)NCc2ccccc2Cl)c1 | 14.6%
86 | CCOC(=O)c1nn(-c2ccc(F)cc2)c(=O)cc1OCC(=O)Nc1cccc(C)c1 | 10.1%
87 | O=C(CSc1nc(-c2ccccc2)c(-c2ccccc2)o1)NC1CCS(=O)(=O)C1 (stereo not drawn) | -6.47%
88 | COc1ccc(NC(=O)C2CCN(S(=O)(=O)c3c(C)noc3/C=C/N(C)C)CC2)cc1 | 3.14%
89 | CC(C)Cc1ccc(/C=C/C(=O)NC2CC2)cc1 | -0.331%
90 | O=C(NCC1CCCO1)c1ccc(Cl)c(S(=O)(=O)N2CCCCC2)c1 (stereo not drawn) | -6.97%
